Measured values published in the supplement of paper PMC12230231.

Tested on: SIVsab (simian immunodeficiency virus of sabaeus monkeys), single-cycle GFP reporter, in CRFK cells
Assay: enrichment among uninfected cells over input (fold); higher = stronger restriction
Details: library: human / rhesus combinations
Experimental: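 Pools of CRFK cells expressing variants of the TRIM5α v1 loop were challenged with the single-cycle reporter, sorted by GFP and sequenced; mean of two replicates.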

| Sequence | enrichment |
| --- | --- |
| MASGILVNVKEEVTCPICLELLTQPLSLDCGHSFCQACLTANHKKSMLDKGESSCPVCRISYQPENIRPNRHVANIVEKLREVKLSPEGQKVDHCARHGEKLLLFCQEDGKVICWLCERSQEHRGHHTFLTEEVAREYQVKLQAALEMLRQKQQEAEELEADIREEKASWKTQIQYDKTNVLADFEQLRDILDWEESNELQNLEKEEEDILKSLTNSETEMVQQTQSLRELISDLEHRLQGSVMELLQGVDGVIKRTENVTLKKPETFPKNQRRVFRAPDLKGMLEVFRELTDVRRYWVDVTVAPNNISCAVISEDKRQVSSPKPQIIYQAPGTLYTFPSFTNFNYCTGILGSQSITSGKHYWEVDVSKKTAWILGVCAGFQPDAMCNIEKNENYQPKYGYWVIGLEEGVKCSAFQDSSFHTPSVPFIVPLSVIICPDRVGVFLDYEACTVSFFNITNHGFLIYKFSHCSFSQPVFPYLNPRKCGVPMTLCSPSS [human TRIM5α, 330-340 = QAPGTLYTFPSFT] | 0.0629 ± 0.025 |
| MASGILVNVKEEVTCPICLELLTQPLSLDCGHSFCQACLTANHKKSMLDKGESSCPVCRISYQPENIRPNRHVANIVEKLREVKLSPEGQKVDHCARHGEKLLLFCQEDGKVICWLCERSQEHRGHHTFLTEEVAREYQVKLQAALEMLRQKQQEAEELEADIREEKASWKTQIQYDKTNVLADFEQLRDILDWEESNELQNLEKEEEDILKSLTNSETEMVQQTQSLRELISDLEHRLQGSVMELLQGVDGVIKRTENVTLKKPETFPKNQRRVFRAPDLKGMLEVFRELTDVRRYWVDVTVAPNNISCAVISEDKRQVSSPKPQIIYGAPGTRFTFQTFTNFNYCTGILGSQSITSGKHYWEVDVSKKTAWILGVCAGFQPDAMCNIEKNENYQPKYGYWVIGLEEGVKCSAFQDSSFHTPSVPFIVPLSVIICPDRVGVFLDYEACTVSFFNITNHGFLIYKFSHCSFSQPVFPYLNPRKCGVPMTLCSPSS [human TRIM5α, 330-340 = GAPGTRFTFQTFT] | 0.159 ± 0.042 |
| MASGILVNVKEEVTCPICLELLTQPLSLDCGHSFCQACLTANHKKSMLDKGESSCPVCRISYQPENIRPNRHVANIVEKLREVKLSPEGQKVDHCARHGEKLLLFCQEDGKVICWLCERSQEHRGHHTFLTEEVAREYQVKLQAALEMLRQKQQEAEELEADIREEKASWKTQIQYDKTNVLADFEQLRDILDWEESNELQNLEKEEEDILKSLTNSETEMVQQTQSLRELISDLEHRLQGSVMELLQGVDGVIKRTENVTLKKPETFPKNQRRVFRAPDLKGMLEVFRELTDVRRYWVDVTVAPNNISCAVISEDKRQVSSPKPQIIYGARGTRFTFQSLVNFNYCTGILGSQSITSGKHYWEVDVSKKTAWILGVCAGFQPDAMCNIEKNENYQPKYGYWVIGLEEGVKCSAFQDSSFHTPSVPFIVPLSVIICPDRVGVFLDYEACTVSFFNITNHGFLIYKFSHCSFSQPVFPYLNPRKCGVPMTLCSPSS [human TRIM5α, 330-340 = GARGTRFTFQSLV] | 0.184 ± 0.049 |
| MASGILVNVKEEVTCPICLELLTQPLSLDCGHSFCQACLTANHKKSMLDKGESSCPVCRISYQPENIRPNRHVANIVEKLREVKLSPEGQKVDHCARHGEKLLLFCQEDGKVICWLCERSQEHRGHHTFLTEEVAREYQVKLQAALEMLRQKQQEAEELEADIREEKASWKTQIQYDKTNVLADFEQLRDILDWEESNELQNLEKEEEDILKSLTNSETEMVQQTQSLRELISDLEHRLQGSVMELLQGVDGVIKRTENVTLKKPETFPKNQRRVFRAPDLKGMLEVFRELTDVRRYWVDVTVAPNNISCAVISEDKRQVSSPKPQIIYQARGTLFPSFVNFNYCTGILGSQSITSGKHYWEVDVSKKTAWILGVCAGFQPDAMCNIEKNENYQPKYGYWVIGLEEGVKCSAFQDSSFHTPSVPFIVPLSVIICPDRVGVFLDYEACTVSFFNITNHGFLIYKFSHCSFSQPVFPYLNPRKCGVPMTLCSPSS [human TRIM5α, 330-340 = QARGTLFPSFV] | 0.124 ± 0.16 |

Same assay, conditions: library: insertions and deletions

| Sequence | enrichment |
| --- | --- |
| MASGILVNVKEEVTCPICLELLTQPLSLDCGHSFCQACLTANHKKSMLDKGESSCPVCRISYQPENIRPNRHVANIVEKLREVKLSPEGQKVDHCARHGEKLLLFCQEDGKVICWLCERSQEHRGHHTFLTEEVAREYQVKLQAALEMLRQKQQEAEELEADIREEKASWKTQIQYDKTNVLADFEQLRDILDWEESNELQNLEKEEEDILKSLTNSETEMVQQTQSLRELISDLEHRLQGSVMELLQGVDGVIKRTENVTLKKPETFPKNQRRVFRAPDLKGMLEVFRELTDVRRYWVDVTVAPNNISCAVISEDKRQVSSPKPQIIYYQTFVNFNYCTGILGSQSITSGKHYWEVDVSKKTAWILGVCAGFQPDAMCNIEKNENYQPKYGYWVIGLEEGVKCSAFQDSSFHTPSVPFIVPLSVIICPDRVGVFLDYEACTVSFFNITNHGFLIYKFSHCSFSQPVFPYLNPRKCGVPMTLCSPSS [human TRIM5α, 6-codon deletion at 330] | 0.486 ± 0.17 |
| MASGILVNVKEEVTCPICLELLTQPLSLDCGHSFCQACLTANHKKSMLDKGESSCPVCRISYQPENIRPNRHVANIVEKLREVKLSPEGQKVDHCARHGEKLLLFCQEDGKVICWLCERSQEHRGHHTFLTEEVAREYQVKLQAALEMLRQKQQEAEELEADIREEKASWKTQIQYDKTNVLADFEQLRDILDWEESNELQNLEKEEEDILKSLTNSETEMVQQTQSLRELISDLEHRLQGSVMELLQGVDGVIKRTENVTLKKPETFPKNQRRVFRAPDLKGMLEVFRELTDVRRYWVDVTVAPNNISCAVISEDKRQVSSPKPQIIYGARGTRYQTFVNFLGSQSITSGKHYWEVDVSKKTAWILGVCAGFQPDAMCNIEKNENYQPKYGYWVIGLEEGVKCSAFQDSSFHTPSVPFIVPLSVIICPDRVGVFLDYEACTVSFFNITNHGFLIYKFSHCSFSQPVFPYLNPRKCGVPMTLCSPSS [human TRIM5α, 6-codon deletion at 343] | 1.12 ± 0.21 |
| MASGILVNVKEEVTCPICLELLTQPLSLDCGHSFCQACLTANHKKSMLDKGESSCPVCRISYQPENIRPNRHVANIVEKLREVKLSPEGQKVDHCARHGEKLLLFCQEDGKVICWLCERSQEHRGHHTFLTEEVAREYQVKLQAALEMLRQKQQEAEELEADIREEKASWKTQIQYDKTNVLADFEQLRDILDWEESNELQNLEKEEEDILKSLTNSETEMVQQTQSLRELISDLEHRLQGSVMELLQGVDGVIKRTENVTLKKPETFPKNQRRVFRAPDLKGMLEVFRELTDVRRYWVDVTVAPNNISCAVISEDKRQVSSPKPQIIYGARGTRYQTFVNFNYITSGKHYWEVDVSKKTAWILGVCAGFQPDAMCNIEKNENYQPKYGYWVIGLEEGVKCSAFQDSSFHTPSVPFIVPLSVIICPDRVGVFLDYEACTVSFFNITNHGFLIYKFSHCSFSQPVFPYLNPRKCGVPMTLCSPSS [human TRIM5α, 9-codon deletion at 345] | 2.33 ± 1.4 |
| MASGILVNVKEEVTCPICLELLTQPLSLDCGHSFCQACLTANHKKSMLDKGESSCPVCRISYQPENIRPNRHVANIVEKLREVKLSPEGQKVDHCARHGEKLLLFCQEDGKVICWLCERSQEHRGHHTFLTEEVAREYQVKLQAALEMLRQKQQEAEELEADIREEKASWKTQIQYDKTNVLADFEQLRDILDWEESNELQNLEKEEEDILKSLTNSETEMVQQTQSLRELISDLEHRLQGSVMELLQGVDGVIKRTENVTLKKPETFPKNQRRVFRAPDLKGMLEVFRELTDVRRYWVDVTVAPNNISCAVISEDKRQVSSPKPQIITRYQTFVNFNYCTGILGSQSITSGKHYWEVDVSKKTAWILGVCAGFQPDAMCNIEKNENYQPKYGYWVIGLEEGVKCSAFQDSSFHTPSVPFIVPLSVIICPDRVGVFLDYEACTVSFFNITNHGFLIYKFSHCSFSQPVFPYLNPRKCGVPMTLCSPSS [human TRIM5α, 5-codon deletion at 329] | 1.15 ± 0.34 |
| MASGILVNVKEEVTCPICLELLTQPLSLDCGHSFCQACLTANHKKSMLDKGESSCPVCRISYQPENIRPNRHVANIVEKLREVKLSPEGQKVDHCARHGEKLLLFCQEDGKVICWLCERSQEHRGHHTFLTEEVAREYQVKLQAALEMLRQKQQEAEELEADIREEKASWKTQIQYDKTNVLADFEQLRDILDWEESNELQNLEKEEEDILKSLTNSETEMVQQTQSLRELISDLEHRLQGSVMELLQGVDGVIKRTENVTLKKPETFPKNQRRVFRAPDLKGMLEVFRELTDVRRYWVDVTVAPNNISCAVISEDKRQVSSPKPQIIYGARGTRYQTFVNFNYCTGILGYCTGILGSQSITSGKHYWEVDVSKKTAWILGVCAGFQPDAMCNIEKNENYQPKYGYWVIGLEEGVKCSAFQDSSFHTPSVPFIVPLSVIICPDRVGVFLDYEACTVSFFNITNHGFLIYKFSHCSFSQPVFPYLNPRKCGVPMTLCSPSS [human TRIM5α, 7-codon duplication at 344] | 0.134 ± 0.049 |
| MASGILVNVKEEVTCPICLELLTQPLSLDCGHSFCQACLTANHKKSMLDKGESSCPVCRISYQPENIRPNRHVANIVEKLREVKLSPEGQKVDHCARHGEKLLLFCQEDGKVICWLCERSQEHRGHHTFLTEEVAREYQVKLQAALEMLRQKQQEAEELEADIREEKASWKTQIQYDKTNVLADFEQLRDILDWEESNELQNLEKEEEDILKSLTNSETEMVQQTQSLRELISDLEHRLQGSVMELLQGVDGVIKRTENVTLKKPETFPKNQRRVFRAPDLKGMLEVFRELTDVRRYWVDVTVAPNNISCAVISEDKRQVSSPKPQIIYGARGTRYNYCTGILGSQSITSGKHYWEVDVSKKTAWILGVCAGFQPDAMCNIEKNENYQPKYGYWVIGLEEGVKCSAFQDSSFHTPSVPFIVPLSVIICPDRVGVFLDYEACTVSFFNITNHGFLIYKFSHCSFSQPVFPYLNPRKCGVPMTLCSPSS [human TRIM5α, 6-codon deletion at 337] | 0.462 ± 0.37 |
| MASGILVNVKEEVTCPICLELLTQPLSLDCGHSFCQACLTANHKKSMLDKGESSCPVCRISYQPENIRPNRHVANIVEKLREVKLSPEGQKVDHCARHGEKLLLFCQEDGKVICWLCERSQEHRGHHTFLTEEVAREYQVKLQAALEMLRQKQQEAEELEADIREEKASWKTQIQYDKTNVLADFEQLRDILDWEESNELQNLEKEEEDILKSLTNSETEMVQQTQSLRELISDLEHRLQGSVMELLQGVDGVIKRTENVTLKKPETFPKNQRRVFRAPDLKGMLEVFRELTDVRRYWVDVTVAPNNISCAVISEDKRQVSSPKPQIIYGARGTRYQTFRYQTFVNFNYCTGILGSQSITSGKHYWEVDVSKKTAWILGVCAGFQPDAMCNIEKNENYQPKYGYWVIGLEEGVKCSAFQDSSFHTPSVPFIVPLSVIICPDRVGVFLDYEACTVSFFNITNHGFLIYKFSHCSFSQPVFPYLNPRKCGVPMTLCSPSS [human TRIM5α, 5-codon duplication at 335] | 0.737 ± 0.16 |
| MASGILVNVKEEVTCPICLELLTQPLSLDCGHSFCQACLTANHKKSMLDKGESSCPVCRISYQPENIRPNRHVANIVEKLREVKLSPEGQKVDHCARHGEKLLLFCQEDGKVICWLCERSQEHRGHHTFLTEEVAREYQVKLQAALEMLRQKQQEAEELEADIREEKASWKTQIQYDKTNVLADFEQLRDILDWEESNELQNLEKEEEDILKSLTNSETEMVQQTQSLRELISDLEHRLQGSVMELLQGVDGVIKRTENVTLKKPETFPKNQRRVFRAPDLKGMLEVFRELTDVRRYWVDVTVAPNNISCAVISEDKRQVSSPKPQIIYGAGTRYQTFVNFNYCTGILGSQSITSGKHYWEVDVSKKTAWILGVCAGFQPDAMCNIEKNENYQPKYGYWVIGLEEGVKCSAFQDSSFHTPSVPFIVPLSVIICPDRVGVFLDYEACTVSFFNITNHGFLIYKFSHCSFSQPVFPYLNPRKCGVPMTLCSPSS [human TRIM5α, 1-codon deletion at 332] | 0.511 ± 0.36 |

± gives the standard deviation of the averaged measurements. Restriction of a single-cycle SIVsab GFP reporter by TRIM5α v1-loop variants in CRFK cells. Human variants: read share among cells still uninfected after two challenges over input, higher = gained restriction. Rhesus variants: share among infected cells over input, higher = lost restriction. Reporter dose not given per row. No active / inactive call per row; the paper calls a change when both replicates lie above its controls (mean + 2 SD of stop or wild-type variants, or the top frameshift score). Residues outside the varied loop are taken from Swiss-Prot. The paper reads the human single-substitution scores as noise; they and the rhesus combinations repeat poorly (rank correlation 0.3 to 0.4), indel scores repeat only for the top variants, rhesus substitutions well (0.9).
